The text below walks through data of PubChem BioAssay AID463173 (ICCB-Longwood Screening Facility, Harvard Medical School, 2010).

Among all 52,000 compounds or so, about 1,700 (3.3%) were called active. No stated cut-off is given here; in the data, active means survival mostly below about 52% (no sharp cut-off); inactive means mostly above about 56%. Some of the results follow.

The experiment relates to Wild type. The experiment can be described thus: S. aureus survival, RN4220 and DeltatarO strains – OD600, teichoic acid synthesis inhibitors, primary screen (AID 463173). Conditions: S. aureus RN4220 wild type/DeltatarO growth, OD600, 18 h, stronger effect = lower value, screened at 18.75 µg/mL (by protocol).
With `Cc1cccc(NC(=O)CSC2=Nc3ccccc3C3=NC(CC(=O)NCc4cccs4)C(=O)N23)c1` (stereo not given), the survival is inactive: 81%.
With `COc1ccccc1/C=C/c1nc(C#N)c(NC2CCCCC2)o1` the figure was inactive: 113%; with `COc1ccc(CNC(=O)CCCn2nc(C)n3c(cc4sccc43)c2=O)cc1`, inactive: 83%.
Then `COCCn1c(C)cc(O)c(C(c2ccccc2OC)N2CCN(c3ccccc3)CC2)c1=O` (stereo not given), with inactive: 74%.
Then `O=C(Cc1ccccc1)Nc1cccnc1`, with inactive: 116%; and `CCOC(=O)c1cnc2ccc(Br)cc2c1NCCN1CCOCC1`, with inactive: 68%.
`Cc1ccc(NC(=O)CN2C=NS(=O)(=O)c3ccccc32)cc1`: the survival is inactive: 71%.
As for `COc1ccc(-c2noc(CC(=O)N(C)c3cccc(C)c3)n2)cc1`, the survival was inactive: 83%.
Then `CCOC(=O)COc1ccc(CC)cc1C(=O)c1ccn2nc(-c3ccc(F)cc3)cc2n1`, with inactive: 75%; and `O=C(Nc1ccc2c(c1)CCCN2C(=O)c1cccs1)c1ccc(F)c(F)c1`, with inactive: 73%.
Turning to `COc1ccc(C(=O)c2cn(Cc3ccccc3F)c3cc4c(cc3c2=O)OCCO4)cc1OC`, the survival was inactive: 86%.
Then `COc1ccc(NC(=O)CSc2oc(-c3cccs3)nc2S(=O)(=O)c2ccccc2)c(OC)c1`, with inactive: 84%.
For the compound `Cc1ccc(Cl)cc1N1CCN(C(=O)CCS(=O)(=O)c2cc(Br)cc3c2N(C(=O)C2CC2)CC3)CC1`, the survival is inactive: 80%.
Then `Cc1ccc(N2CC(NC(=O)c3ccccc3C(F)(F)F)CC2=O)cc1C` (stereo not given), with inactive: 47%; and `COc1ccc(Cl)cc1S(=O)(=O)Nc1ccc2[nH]c(=O)[nH]c2c1`, with inactive: 80%.
As to `Clc1ccc2c(c1)-n1cc(-c3ccccc3)nc1CO2`, the survival is inactive: 72%.
With `CCc1ccc(S(=O)(=O)c2cn(Cc3ccccc3)c3cc(N4CCCC4)c(F)cc3c2=O)cc1` the figure was inactive: 78%; with `O=C(Nc1ccc(C(=O)OCc2cc(=O)n3nc(C4CC4)sc3n2)cc1)c1ccccc1`, inactive: 70%.
Consider `Cc1ccc(CCNC(=O)Cn2c(-c3cccs3)cc3ccccc32)cc1`, for which the survival is inactive: 119%.
With `Cc1cccc(CNC(=O)c2cc3cc(S(=O)(=O)N4CCCCC4)ccc3n2C)c1`, the survival is inactive: 76%.
With `Cc1ccc(-c2cc(C(=O)N3CCN(S(=O)(=O)c4ccc(Br)cc4)CC3)[nH]n2)c(C)c1` the figure was inactive: 63%; with `CC(C)OCCCn1c(=O)c2ccccc2n2c(-c3ccccc3)nnc12`, inactive: 113%; with `CC(C)(C)C1CCc2c(sc(NC(=O)c3cccc(Cl)c3)c2C(=O)NCc2ccco2)C1` (stereo not given), inactive: 119%.
With `CC(=O)c1ccc(NC(=O)C2CCN(c3nnc(C)c4c(C)n(-c5ccccc5)nc34)CC2)cc1`, the survival was inactive: 83%.
Consider `O=C(NC1CCCCC1)N1CCCC(c2nc(-c3ccc(Cl)cc3)no2)C1` (stereo not given), for which the survival is inactive: 86%.
On to `CCc1nn2c(=O)cc(COC(=O)Cc3ccccc3)nc2s1`, for which the survival was inactive: 59%.
With `O=C(Cc1ccccc1)Nc1sc2c(c1C(=O)Nc1cccc(Cl)c1)CCCCC2` the figure was inactive: 91%; with `COc1ccc(NCc2cccn2-c2nnc(N3CCCCCC3)s2)cc1`, inactive: 78%; with `COc1ccc(NC(=O)CSC2=Nc3ccccc3C3=NC(CC(=O)NCCc4ccccc4)C(=O)N23)cc1` (stereo not given), inactive: 64%.
Consider `O=C(NCc1ccco1)c1ccc(Cn2c(SCc3ccccc3)nc3cccnc32)cc1`, for which the survival is inactive: 73%.
Turning to `COc1cc(OC)c(NC(=O)CCS(=O)(=O)c2ccc3c(c2)oc(=O)n3C)cc1Cl`, the survival is inactive: 83%.
Then `Cc1ccc(S(=O)(=O)c2cn(Cc3ccccc3)c3cc(N4CCCCC4)c(F)cc3c2=O)cc1`, with inactive: 65%.
Then `CC(C)CCOc1ccc(Cn2c(=O)oc3ccccc32)cc1`, with inactive: 121%; and `COc1ccc(-c2noc(-c3ccc(N4CCOCC4)c([N+](=O)[O-])c3)n2)cc1`, with inactive: 83%.
With `CCc1ccc(CNC(=O)C2COc3ccc(OC)cc3C2)cc1` (stereo not given) the figure was inactive: 93%; with `CN(Cc1ccccc1)C(=O)CSc1nnc(-c2cccc(Cl)c2)o1`, inactive: 94%; with `CCOC(=O)c1c(C)sc(-c2c(-c3ccccc3)[nH]c3[nH]c(=O)[nH]c(=O)c23)c1O`, inactive: 104%.
`CCC(=O)n1nc(-c2ccccc2)nc1N`: the survival is inactive: 113%.
Then `CC1=C(C(=O)Nc2ccccc2C)C(c2cccs2)n2nc(SCc3ccccc3)nc2N1` (stereo not given), with inactive: 99%.
Then `CCc1ccc(S(=O)(=O)NCc2ccc3c(c2)CCN3C(=O)c2ccc(C)cc2)cc1`, with inactive: 78%.
With `CC(C(=O)NCC1(c2ccccc2)CCOCC1)N1CCCCC1` (stereo not given), the survival was inactive: 103%.
Regarding `CCc1ccc(-n2nc(CO)c(C(=O)NCCOC)n2)cc1`, the survival is inactive: 84%.
Then `O=C(Cn1ncc2c(Cl)cccc21)NCc1cccc(Cl)c1`, with inactive: 116%; and `CC(C)(C)C(=O)Nc1ccccc1C(=O)Nc1nccs1`, with inactive: 100%.
On to `CN(C(=O)CC(=O)Nc1ccc2nc3n(c(=O)c2c1)CCCCC3)c1ccccc1F`, for which the survival is inactive: 90%.
Then `Cc1scc(CN2CCN(c3ccccc3F)CC2)c1C`, with inactive: 92%; and `COc1ccc(OC)c(S(=O)(=O)N2CCC(n3c(C)nc4cccnc43)CC2)c1`, with inactive: 45%; and `CCOc1ccc(NC(=O)Cn2c(=O)n(Cc3ccc4c(c3)OCO4)c(=O)c3ccc(C(=O)NC4CCCCC4)cc32)cc1`, with inactive: 90%.
With `Cc1ccc(CNS(=O)(=O)c2ccc(C(=O)N(C)C)s2)cc1` the figure was active: -6%.
In the case of `Cc1ccc(CN(C(=O)COc2ccccc2Cl)c2ccccn2)o1`, the survival is inactive: 90%.
With `COc1ccc(Nc2c3c(nc4ccccc24)CCC3)cc1Cl`, the survival is inactive: 72%.
Turning to `Cc1cccc(NC(=O)Cn2c(=O)n(Cc3ccc4c(c3)OCO4)c(=O)c3oc4ccccc4c32)c1C`, the survival was inactive: 88%.
As for `Fc1ccc(CNc2ccc(N3CCCC3)cc2)cc1`, the survival was inactive: 103%.
For the compound `COc1ccc(OC)c(CNC(=O)Nc2cn(CC(C)C)c(=O)c3ccccc23)c1`, the survival is inactive: 66%.
Regarding `CCC(=O)N1c2ccc(S(=O)(=O)CCC(=O)NCc3ccccc3OC)cc2CC1C` (stereo not given), the survival is inactive: 87%.
Then `CC(C)(C)C1CCc2c(sc(NC(=O)C3c4ccccc4Oc4ccccc43)c2C(N)=O)C1` (stereo not given), with inactive: 91%.
With `CCn1cc(S(=O)(=O)c2cc(C)cc(C)c2)c(=O)c2cc(F)c(N3CCCCC3)cc21` the figure was inactive: 82%.
With `CC1CCCCN1Cc1c(O)ccc2c(=O)c(-c3ccccc3Cl)c(C(F)(F)F)oc12` (stereo not given) the figure was inactive: 75%.
For the compound `CCCCn1c(CNC(=O)C23CC4CC(CC(C4)C2)C3)nnc1SCC(=O)Nc1ccc(C)cc1`, the survival was inactive: 42%.
In the case of `COCCSc1nc2c([nH]c3ccccc32)c(=O)n1-c1ccc(OC)c(OC)c1`, the survival was inactive: 128%.
With `Cc1ccc(CNC(=O)Nc2cc(C(=O)NCc3cccc(F)c3)ccc2N2CCCC2)cc1`, the survival is inactive: 128%.
For `COC(=O)c1nnn(CC(=O)NC(=O)Nc2ccc(F)cc2)c1C(=O)OC`, the survival was inactive: 70%.
Regarding `CC(=O)N1CCc2cc(Br)cc(S(=O)(=O)N3CCC(C(=O)Nc4cccc(C)c4C)CC3)c21`, the survival is inactive: 98%.
`O=C(Nc1ccc(S(=O)(=O)N2CCC(c3nc4ccccc4s3)CC2)cc1)c1ccccc1`: the survival was inactive: 118%.
Then `O=C(CSc1ccccn1)Nc1cccc(F)c1`, with inactive: 118%; and `COc1ccccc1NC(=O)Cn1c(CN2CCCCC2)nc2ccccc2c1=O`, with inactive: 110%; and `CCC(C(=O)OC)n1c(-c2ccccc2)nc2ccccc2c1=O` (stereo not given), with inactive: 98%.
With `Cc1ccc(NC(=O)CNCCCN2CCOCC2)cc1Br` the figure was inactive: 104%; with `Cc1ccc(C2CC(=O)Nc3cc4c(cc32)OCCO4)cc1Br` (stereo not given), inactive: 86%; with `CCc1ccc(-c2nnn(CC#N)n2)cc1`, inactive: 99%.
With `Fc1ccccc1-c1nc(N2CCN(c3cccc(Cl)c3)CC2)c2ccccc2n1` the figure was inactive: 58%; with `CCOc1ccc(CCNC(=O)c2cc(=O)[nH]c3ccc(S(=O)(=O)N4CCCCC4C)cc23)cc1OCC` (stereo not given), inactive: 75%.
For `CCC(Sc1nc(N)cc(=O)[nH]1)C(=O)NC(C)c1ccccc1` (stereo not given), the survival is inactive: 103%.
For the compound `Cc1ccc(-c2noc(CCC(=O)N(C)c3ccccc3F)n2)cc1`, the survival was active: 4%.
Then `COCCNC(=O)Cn1ccc2cc(S(=O)(=O)N3CCCCCC3)ccc21`, with inactive: 80%; and `CC(C)c1ccccc1C=NCC(=O)O`, with inactive: 103%.
Then `COc1ccc(CNC(=O)CCc2c(C)nc3c(c(C)nn3-c3ccccc3)c2C)cc1`, with inactive: 103%.
With `CCOC(=O)c1c(C)n(-c2ccc(OC)cc2)c2ccc(OC(=O)COc3ccccc3)cc12` the figure was inactive: 76%; with `O=C(Cn1nnnc1-c1ccccc1F)Nc1ccc(OC(F)(F)F)cc1`, inactive: 88%.
`Cc1ccc(-n2ncc3c(Nc4cccc(Cl)c4)ncnc32)c(C)c1`: the survival was inactive: 82%.
Then `CCN(CC)c1cc(C)c2cc(NC(=O)/C=C/c3cc(OC)c(OC)c(OC)c3)ccc2n1`, with inactive: 96%; and `CC(C)c1nnc(N2C(=O)c3oc4ccccc4c(=O)c3C2c2ccccc2F)s1` (stereo not given), with inactive: 75%.
Then `COc1cc(NC(=O)C2=CC(c3ccc(F)cc3)=NS(=O)(=O)N2C)cc(OC)c1OC`, with inactive: 82%; and `CCc1ccc(CNC(=O)CCc2c(C)nn(-c3ccc(N4CCCC4)nn3)c2C)cc1`, with inactive: 68%; and `O=C(CSc1nccn1Cc1ccc(F)cc1)Nc1nc2ccccc2s1`, with inactive: 82%.
Then `CCN(Cc1ccccc1)C(=O)C1CCN(S(=O)(=O)c2ccc3c(c2)CCCN3C(C)=O)CC1`, with inactive: 69%; and `O=C(Cn1ncc2c3ccccc3n(Cc3ccccc3F)c2c1=O)NCc1ccccc1Cl`, with inactive: 94%.
For the compound `Cc1cc2c(cc1S(=O)(=O)Nc1cccc(C#N)c1)OCC(=O)N2`, the survival is inactive: 74%.
On to `CNC(=O)CC(=O)NC`, for which the survival is inactive: 116%.
Then `Cc1cccc(CC(=O)N2CC(=O)Nc3ccc(Br)cc3C2c2ccc(F)cc2)c1` (stereo not given), with inactive: 62%.
